± gives the standard deviation. This is a selection; strong and weak results do not stand in their true shares.

The first assay has as its system MIWI (PIWIL1) piRISC loaded with L1MC piRNA (30 nt). As to the kind of experiment: pre-steady-state target cleavage rate (min^-1); MIWI and MILI are mouse PIWI proteins and EfPiwi is from a freshwater sponge; tags in brackets are library labels; higher = faster piRNA-guided slicing of the target. As to conditions: guide: L1MC piRNA 5'p-UAACUAAAUACUAUGCAAGCUGUAGGUCCU; auxiliary factor: 500 nM mouse GTSF1. Summed up: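 The pre-steady-state cleavage rate came from a burst-and-steady-state fit to pooled data from three Cleave-'n-Seq trials, in which uncleaved targets were sequenced and normalised to depth and to weakly complementary targets. Each reaction held 0.1 nM transcribed, DNA-blocked target RNA library and 1 nM active affinity-purified piRISC carrying one synthetic guide, with or without 500 nM GTSF1 partner protein, in HEPES–potassium acetate buffer at 33 °C for 0–8 or 0–960 min. k3 was capped at 0.0001 min^-1.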
Regarding UGGACCUACAGCUUCCAUAGUAUUUUGUUA, the “pre-steady-state target cleavage rate” value was determined as 0.00948 ± 0.0033. UCCUGGUACACCUUGCAUAGUAUUUUCAAA: the “pre-steady-state target cleavage rate” value is 0.0614 ± 0.027. Take UCCACCUACUCGUUGCAUAGUAUUUAGAAA: the “pre-steady-state target cleavage rate” value came out at 0.139 ± 0.021. Still for that read-out and setting: the same measure for UCCUGGAUGUGCUACCAUAGUAUUUAGUUA: 0.00465 ± 0.0032; for UCGACCUACACGUUGCAUAGUAUUUAGAAA: 0.288 ± 0.026. For UCCUGGAUCAGCUACCAUAGUAUUUAGUAA, the “pre-steady-state target cleavage rate” value stood at 0.00688 ± 0.0035. Same read-out and setting: with UCCUGGAACAGCUUGCAUCAGUAUUUAGUUA the figure was 0.00906 ± 0.005; with UCCUGGAUGUCCUUGCUUAGUAUUUACUUA, 0.0076 ± 0.004.

For the sequence UCCACCUACAGCUUGCAUAGUAUAUAGAAA, the “pre-steady-state target cleavage rate” value is 0.289 ± 0.055. For UCCUGCUACAGCUUGCAAUGUAUUUACAAA, the “pre-steady-state target cleavage rate” value was 0.0711 ± 0.015.

For UCCUGGUACACCUUCCAUAGUAUUUAGUUA, the “pre-steady-state target cleavage rate” value is 0.00657 ± 0.0054.

For UCCUGGAUCAGCUUGCAUAGUAUAUACAAA, the “pre-steady-state target cleavage rate” value came out at 0.0666 ± 0.022. In the case of UCCACCUACAGCUUGCUUAGUAUUUUCAAA, the “pre-steady-state target cleavage rate” value worked out at 0.167 ± 0.026. For UCCUCCUACAGCUUGCAUAGUUUUUUCAAA, the “pre-steady-state target cleavage rate” value is 0.127 ± 0.028.

UCCACCUACAGCUUGCACUAGUAUUUAGUUA: the “pre-steady-state target cleavage rate” value was determined as 0.132 ± 0.048. Still for that read-out and setting: with UCGACCUACAGCUUGCAAUGUAUUUAGAAA the figure was 0.086 ± 0.013; with UCCUGGAUGUCGUUGCAUAGUAUUCUAGUUA, 0.00471 ± 0.004; with UGGACCUACAGCUUCCAUAGUAUUUAGAAA, 0.00611 ± 0.0034. On the same count and under the same terms, with UCCUCCUACUCGUUGCAUAGUAUUUAGAAA the figure was 0.181 ± 0.03; with UCCUCCUACAGCUUCCAUAGUAUUUUGUUA, 0.0326 ± 0.013. Same read-out and setting: with UGGACCUACAGCUUCGAUAGUAUUUAGAAA the figure was 0.0441 ± 0.0077. UGGACCUACAGCUUGCUUAGUAUUUUCAAA: the “pre-steady-state target cleavage rate” value stood at 0.0862 ± 0.016. On to UCCUCCUACACGUUGCAUAGUAUUUAGAAA, for which the “pre-steady-state target cleavage rate” value was found to be 0.394 ± 0.049. Still for that read-out and setting: with UCCUGGAACAGCUUGCAUAGUAUUAUCUAA the figure was 0.167 ± 0.03; with AGGACCUACAGCAACCAUAGUAUUUAGUAA, 0.221 ± 0.033. Regarding UCCACCUACAGCUACCAUAGUAUUUAGAAA, the “pre-steady-state target cleavage rate” value worked out at 0.0452 ± 0.014.

UCCUCCUACACGAUGCAUAGUAUUUAGAAA: the “pre-steady-state target cleavage rate” value worked out at 0.14 ± 0.024.

Regarding UCCUGGUACAGCUUGCUAAGUAUUUACAAA, the “pre-steady-state target cleavage rate” value stood at 0.00749 ± 0.0048. With UCCUCCUACAGCUAGCAUAGUAUUUACAAA, the “pre-steady-state target cleavage rate” value came to 0.265 ± 0.036.

Consider UCCUGGAUGACGAUGCAUAGUAUUUAGUAA, for which the “pre-steady-state target cleavage rate” value was 0.00983 ± 0.0051. On the same count and under the same terms, with UCCUGGAACAGCUAGCAUAGUAUUUUCAAA the figure was 0.102 ± 0.026; with UCCUGGAUGUCGUUGCAUUGUAUUUAGUAA, less than 0.0001. On the same count and under the same terms, the same measure for UCCUCCUACAGGAAGCAUAGUAUUUAGAAA: 0.0935 ± 0.016; for UCCUGGAUCACGAUGCAUAGUAUUUAGUUA: 0.022 ± 0.0053. Take AGGACCUACAGCUUGCAUAGUAAAUUCAAA: the “pre-steady-state target cleavage rate” value is 0.338 ± 0.08. For UCCUGCUACAGCUUGCAUAGUUUUUUCAAA, the “pre-steady-state target cleavage rate” value was 0.122 ± 0.022.

Staying with this assay, now noted: guide: L1MC piRNA 5'p-UAACUAAAUACUAUGCAAGCUGUAGGUCCU; auxiliary factor: none (no GTSF1).
For the sequence UCCUGGAUGUCGAACGUAAGUAUUUAGAUA, the “pre-steady-state target cleavage rate” value was less than 0.0001. Turning to UCCUGGAUGUCGUUGGAAAGUAUUUAGUUA, the “pre-steady-state target cleavage rate” value is less than 0.0001.

With UCCUGGAUGUCGAACGUAUCUAAUUUGUUA, the “pre-steady-state target cleavage rate” value was less than 0.0001.

Take UCGACCUAGCAGCUUGCAUAGUAUUUAGUUA: the “pre-steady-state target cleavage rate” value came out at 0.0726 ± 0.016.

(Values after the supplement of paper PMC10338343.)
